Measured values reported in PubChem BioAssay (Tox21).
This list was built around the results that the source calls inconclusive (neither active nor inactive); the mix of calls is not that of the screen. For some assays here: Potencies beside an inconclusive call are fits to weak or partial responses and may not hold up. Active and inactive are the calls of the source. Unless noted, calls come from the whole dose curve; as a rule, active = well fitted curve in the direction sought with a large enough effect in the repeat runs; inconclusive = weak or mixed curves; inactive = no such curve, though single readings can be large; an effect the other way counts as inactive or inconclusive.

Tests used:
[1] = target: Glucocorticoid receptor (Homo sapiens) (UniProt P04150); assay: qHTS assay to identify small molecule antagonists of the glucocorticoid receptor (GR) signaling pathway (AID 720692; active = well fitted inhibition curve with a large enough effect in the signal ratio in the repeat runs, not every such curve was filed as active; inconclusive = weak or mixed curves, or effect the other way; inactive = no such curve, though single readings can be large or run the other way; the % refers to the signal ratio; note: % is set by controls: 0 for no effect and ±100 for the full control effect); conditions: GR-bla HeLa, beta-lactamase FRET ratio, dexamethasone-stimulated, 18 h; activity change, negative = inhibition: at 58.5 µM (top of the series) unless noted
UniProt P04150, sequence (P04150 whole entry, looked up): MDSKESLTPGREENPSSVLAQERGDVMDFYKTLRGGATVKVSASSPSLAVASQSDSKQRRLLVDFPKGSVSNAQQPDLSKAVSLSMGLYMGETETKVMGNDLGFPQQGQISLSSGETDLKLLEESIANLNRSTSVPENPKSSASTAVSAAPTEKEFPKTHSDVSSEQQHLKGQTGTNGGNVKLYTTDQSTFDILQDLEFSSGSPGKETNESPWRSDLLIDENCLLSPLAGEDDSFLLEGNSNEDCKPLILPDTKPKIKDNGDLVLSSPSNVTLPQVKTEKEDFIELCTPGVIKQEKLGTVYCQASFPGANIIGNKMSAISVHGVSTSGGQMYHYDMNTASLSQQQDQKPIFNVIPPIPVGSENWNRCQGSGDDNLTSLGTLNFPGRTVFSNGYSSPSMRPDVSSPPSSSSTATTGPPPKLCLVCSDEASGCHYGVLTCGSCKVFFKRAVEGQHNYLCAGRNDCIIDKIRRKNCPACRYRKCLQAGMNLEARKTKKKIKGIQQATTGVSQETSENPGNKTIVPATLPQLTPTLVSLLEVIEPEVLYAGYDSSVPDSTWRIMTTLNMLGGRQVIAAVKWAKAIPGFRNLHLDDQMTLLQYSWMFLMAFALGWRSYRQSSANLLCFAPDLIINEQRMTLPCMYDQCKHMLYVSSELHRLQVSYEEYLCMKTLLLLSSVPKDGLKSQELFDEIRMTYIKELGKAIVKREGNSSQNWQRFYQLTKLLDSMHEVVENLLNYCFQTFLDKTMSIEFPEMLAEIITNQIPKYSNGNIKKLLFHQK
Method in brief: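 GR-bla HeLa cells (beta-lactamase reporter under glucocorticoid response element) were pre-plated 4 h at 37 C, treated with compounds plus 5 nM dexamethasone (final) for 18 h, then read by LiveBLAzer B/G FRET fluorescence after 2 h.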

[2] = qHTS assay to identify small molecule antagonists of the androgen receptor (AR) signaling pathway - cell viability counter screen (AID 743033; note: % is set by controls: 0 for no effect and ±100 for the full control effect; nearly all actives have a fitted effect of over 45% in size); conditions: AR-bla HEK293 viability, CellTiter-Glo luminescence, 16 h; activity change, negative = cytotoxicity: at 58.5 µM (top of the series) unless noted
[3] = target: Androgen receptor (Homo sapiens) (UniProt P10275); assay: qHTS assay to identify small molecule antagonists of the androgen receptor (AR) signaling pathway (AID 743035; active = well fitted inhibition curve with a large enough effect in the signal ratio in the repeat runs, not every such curve was filed as active; inconclusive = weak or mixed curves, or effect the other way; inactive = no such curve, though single readings can be large or run the other way; the % refers to the signal ratio; note: % is set by controls: 0 for no effect and ±100 for the full control effect); conditions: HEK293 AR-UAS-bla, R1881-stimulated, beta-lactamase FRET, 16 h; activity change, negative = inhibition: at 58.5 µM (top of the series) unless noted
UniProt P10275, sequence (P10275 whole entry, looked up): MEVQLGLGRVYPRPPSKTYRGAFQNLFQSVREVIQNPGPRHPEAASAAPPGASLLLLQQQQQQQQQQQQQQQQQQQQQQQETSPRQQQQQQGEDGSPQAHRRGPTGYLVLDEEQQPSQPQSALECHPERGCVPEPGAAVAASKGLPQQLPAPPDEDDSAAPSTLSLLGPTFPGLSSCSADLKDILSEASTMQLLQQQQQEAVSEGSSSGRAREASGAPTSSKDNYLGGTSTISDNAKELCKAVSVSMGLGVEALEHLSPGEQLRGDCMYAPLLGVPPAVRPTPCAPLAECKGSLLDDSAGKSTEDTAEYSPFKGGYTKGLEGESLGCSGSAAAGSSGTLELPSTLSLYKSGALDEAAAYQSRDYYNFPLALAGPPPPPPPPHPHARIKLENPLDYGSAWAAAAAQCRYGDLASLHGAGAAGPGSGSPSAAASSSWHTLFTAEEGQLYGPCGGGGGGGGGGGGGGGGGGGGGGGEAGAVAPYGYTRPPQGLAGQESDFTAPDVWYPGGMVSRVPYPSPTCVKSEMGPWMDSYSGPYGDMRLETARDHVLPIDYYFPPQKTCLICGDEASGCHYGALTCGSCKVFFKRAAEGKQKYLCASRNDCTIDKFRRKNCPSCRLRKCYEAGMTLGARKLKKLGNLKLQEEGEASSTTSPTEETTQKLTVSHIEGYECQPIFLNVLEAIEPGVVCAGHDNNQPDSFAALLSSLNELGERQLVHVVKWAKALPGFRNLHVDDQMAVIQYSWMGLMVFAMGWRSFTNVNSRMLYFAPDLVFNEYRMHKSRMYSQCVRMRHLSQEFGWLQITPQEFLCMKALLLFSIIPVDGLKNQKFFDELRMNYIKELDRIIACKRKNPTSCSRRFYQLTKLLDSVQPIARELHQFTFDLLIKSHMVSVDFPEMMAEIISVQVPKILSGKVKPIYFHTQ
Method in brief: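 HEK293 cells stably carrying a UAS-driven beta-lactamase reporter (AR-UAS-bla GripTite) were plated for 4 h at 37C, then given compound and the agonist R1881 and incubated 16 h. Reporter activity was read by LiveBLAzer B/G FRET fluorescence after 2 h at room temperature.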

[4] = qHTS assay to identify small molecule antagonists of the thyroid receptor (TR) signaling pathway - cell viability counter screen (AID 743064); conditions: GH3.TRE-Luc viability, CellTiter-Fluor, 24 h; activity change, negative = cytotoxic: at 70.3 µM (top of the series) unless noted; note: potency is the fitted concentration of half-maximal effect; nearly all actives have a fitted effect of over 50% in size
Method in brief: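 In-well cytotoxicity read by CellTiter-Fluor (30 min, 37 C) following 23.5 h exposure of GH3 cells bearing a TRE-luciferase sensor. Compounds were added alongside 1 nM (final) T3 to drive TR transactivation.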

[5] = qHTS assay to identify small molecule antagonists of the estrogen receptor alpha (ER-alpha) signaling pathway - cell viability counter screen (AID 743074; calls by dose curve;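 note: HEK293 cells carrying ER-alpha-UAS-bla reporter stimulated with 17beta-estradiol; potency is the fitted concentration of half-maximal effect; nearly all actives have a fitted effect of over 45% in size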)
[6] = target: Peroxisome proliferator-activated receptor gamma (Homo sapiens) (UniProt P37231); assay: qHTS assay to identify small molecule antagonists of the peroxisome proliferator-activated receptor gamma (PPARg) signaling pathway (AID 743191; calls by dose curve; note: % is set by controls: 0 for no effect and ±100 for the full control effect; nearly all actives have a fitted effect of over 30% in size); conditions: HEK293H PPARg-UAS-bla, beta-lactamase ratio, antagonist, 17 h; ratio activity, negative = inhibition: at 62.6 µM (top of the series) unless noted
UniProt P37231, sequence (P37231 whole entry, looked up): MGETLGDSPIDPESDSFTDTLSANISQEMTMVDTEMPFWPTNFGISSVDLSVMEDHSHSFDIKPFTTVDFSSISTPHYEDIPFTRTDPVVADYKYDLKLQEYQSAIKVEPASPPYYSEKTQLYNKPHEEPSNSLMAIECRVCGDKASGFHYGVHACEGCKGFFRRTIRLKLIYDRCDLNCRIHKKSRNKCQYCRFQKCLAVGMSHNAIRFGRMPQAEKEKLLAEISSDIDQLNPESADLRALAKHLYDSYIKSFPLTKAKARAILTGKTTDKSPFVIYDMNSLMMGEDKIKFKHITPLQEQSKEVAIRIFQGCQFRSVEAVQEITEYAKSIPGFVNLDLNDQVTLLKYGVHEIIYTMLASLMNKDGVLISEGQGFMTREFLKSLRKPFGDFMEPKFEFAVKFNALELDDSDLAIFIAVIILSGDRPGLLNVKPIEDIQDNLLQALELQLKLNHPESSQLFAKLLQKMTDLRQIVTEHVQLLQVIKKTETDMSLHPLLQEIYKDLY
Method in brief: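 Beta-lactamase reporter under UAS control in HEK293H PPARg-bla cells; compound treatment 17 h at 37C. Read-out: fluorescence intensity after 1 h room-temperature incubation with LiveBLAzer B/G FRET substrate.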

[7] = qHTS assay for small molecule agonists of the antioxidant response element (ARE) signaling pathway (AID 743202; active = well fitted activation curve with a large enough effect in the signal ratio in the repeat runs, not every such curve was filed as active; inconclusive = weak or mixed curves, or effect the other way; inactive = no such curve, though single readings can be large or run the other way; the % refers to the signal ratio; note: % is set by controls: 0 for no effect and ±100 for the full control effect); conditions: HepG2 ARE-bla reporter, beta-lactamase FRET, 16 h; activation: at 73.3 µM (top of the series) unless noted
Method in brief: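 Quantitative high-throughput format in HepG2 cells bearing an integrated ARE-beta-lactamase reporter. Compound exposure lasted 16 h at 37 C, and fluorescence was read 2 h after adding LiveBLAzer B/G substrate at room temperature.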

[8] = qHTS assay for small molecule activators of the heat shock response signaling pathway (AID 743210; active = well fitted activation curve with a large enough effect in the signal ratio in the repeat runs, with a control signal flat, not every such curve was filed as active; inconclusive = weak or mixed curves; the % refers to the signal ratio;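 note: HeLa cells with beta-lactamase reporter driven by heat shock elements; % is set by controls: 0 for no effect and ±100 for the full control effect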); conditions: HeLa HSE-bla reporter, beta-lactamase ratio, 5 h; activation: at 62.6 µM (top of the series) unless noted
Method in brief: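 HeLa HSE-bla cells, overnight plating; cpd in DMSO 5 h, 37 C; LiveBLAzer B/G FRET substrate 2.5 h RT; fluorescence intensity read.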

[9] = target: Bile acid receptor (Homo sapiens) (UniProt Q96RI1); assay: qHTS assay to identify small molecule antagonists of the farnesoid-X-receptor (FXR) signaling pathway (AID 743217; active = well fitted inhibition curve with a large enough effect in the signal ratio in the repeat runs, not every such curve was filed as active; inconclusive = weak or mixed curves, or effect the other way; inactive = no such curve, though single readings can be large or run the other way; the % refers to the signal ratio; note: % is set by controls: 0 for no effect and ±100 for the full control effect); conditions: HEK293T FXR-UAS-bla, beta-lactamase ratio, CDCA-stimulated, 16 h; activity change, negative = inhibition: at 62.6 µM (top of the series) unless noted
UniProt Q96RI1, sequence (Q96RI1 whole entry, looked up): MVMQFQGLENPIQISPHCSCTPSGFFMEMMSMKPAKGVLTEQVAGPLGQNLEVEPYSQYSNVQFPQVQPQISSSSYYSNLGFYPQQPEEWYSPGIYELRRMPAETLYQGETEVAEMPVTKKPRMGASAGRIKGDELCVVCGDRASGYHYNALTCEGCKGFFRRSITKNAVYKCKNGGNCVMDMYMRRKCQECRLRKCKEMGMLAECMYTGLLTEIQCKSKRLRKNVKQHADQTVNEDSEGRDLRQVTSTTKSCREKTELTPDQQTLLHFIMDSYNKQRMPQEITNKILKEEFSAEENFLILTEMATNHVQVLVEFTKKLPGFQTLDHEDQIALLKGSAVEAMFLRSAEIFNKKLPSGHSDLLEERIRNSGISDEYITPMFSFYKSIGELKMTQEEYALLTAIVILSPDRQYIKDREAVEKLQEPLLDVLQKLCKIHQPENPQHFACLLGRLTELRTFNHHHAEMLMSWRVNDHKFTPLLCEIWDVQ
Method in brief: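 FXR-UAS-bla HEK 293T cells pre-incubated 5 h at 37 °C, then exposed to compounds with chenodeoxycholic acid (50 uM final) for 16 h at 37 °C. Beta-lactamase reporter read by LiveBLAzer B/G FRET substrate fluorescence after 2 h at room temperature.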

[10] = qHTS assay to identify small molecule antagonists of the estrogen related receptor (ERR) signaling pathway from Tox21 library - cell viability counter screen (AID 1224834); note: % is set by controls: 0 for no effect and ±100 for the full control effect; nearly all actives have a fitted effect of over 30% in size
Method in brief: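 ERR reporter cells were plated 6 h before compound addition, then exposed to test compounds in DMSO for 17.5 h at 37 C. Viability was read as CellTiter-Fluor fluorescence after a 30-minute incubation at 37 C.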

[11] = target: Thyrotropin receptor (Homo sapiens) (UniProt P16473); assay: qHTS assay to identify small molecule agonists of the thyroid stimulating hormone receptor (TSHR) signaling pathway (AID 1224843; calls by dose curve; note: % is set by controls: 0 for no effect and ±100 for the full control effect; nearly all actives have a fitted effect of over 45% in size); conditions: TSHR-HEK293 cells, cAMP HTRF, agonist mode, 30 min; activation: at 92.4 µM (top of the series) unless noted
Method in brief: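 Screening of the Tox21 10K collection used HEK293 cells engineered with TSHR at 800 cells per well. After a 30-min room-temperature compound exposure, HTRF cAMP reagents were added and fluorescence recorded 1 h later.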

[12] = qHTS RealTime-Glo MT Cell Viability Assay in HEK293 cells - 24 hour (AID 1224886); note: top concentration of the series differs between compounds; % is set by controls: 0 for no effect and ±100 for the full control effect; nearly all actives have a fitted effect of over 50% in size
Method in brief: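 Reads taken at 0, 8, 16, 24, 32 and 40 h from the same wells. HEK293 cells (600/well) carried RealTime-Glo reagents from seeding, with compound added after a 5 h settle at 37 C.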

[13] = qHTS assay to identify small molecule phospholipidosis (PLD) inducers (AID 1259344; active = well fitted curve in the direction sought with a large enough effect; inconclusive = small, poorly fitted or top-dose-only effect, or another doubt; inactive = no such curve, though single readings can be large; an effect the other way counts as inactive or inconclusive; note: % is set by controls: 0 for no effect and ±100 for the full control effect); conditions: HepG2 phospholipidosis, LipidTOX Red imaging, 24 h; PLD induction: at 38.3 µM (top of the series) unless noted
Method in brief: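 Phospholipidosis is scored by imaging LipidTOX-stained pits in HepG2 cells exposed to compound for 24 h at 37 C; pit counts and integrated intensities per well and per cell serve as outputs.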

[14] = qHTS assay to identify small molecule antagonists of the sonic hedgehog signaling (Shh) pathway (AID 1259369; calls by dose curve; note: nearly all actives have a fitted effect of over 45% in size; note: potency is the fitted concentration of half-maximal effect)
Method in brief: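 NIH/3T3-derived 3T3Gli1-Luc cells with stably integrated Gli1-Luc reporter were preincubated 4hr at 37 C, then given compounds in DMSO plus Shh conditioned medium and incubated 24hr. Firefly luciferase luminescence read after 30min reagent at room temperature.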

[15] = target: Progesterone receptor (Homo sapiens) (UniProt P06401); assay: qHTS assay to identify small molecule agonists of the progesterone receptor (PR) signaling pathway (AID 1346784; calls by dose curve; note: % is set by controls: 0 for no effect and ±100 for the full control effect; nearly all actives have a fitted effect of over 30% in size); conditions: PR-UAS-bla HEK293T, beta-lactamase FRET ratio, 16 h; activation: at 92.4 µM (top of the series) unless noted
UniProt P06401, sequence (P06401 whole entry, looked up): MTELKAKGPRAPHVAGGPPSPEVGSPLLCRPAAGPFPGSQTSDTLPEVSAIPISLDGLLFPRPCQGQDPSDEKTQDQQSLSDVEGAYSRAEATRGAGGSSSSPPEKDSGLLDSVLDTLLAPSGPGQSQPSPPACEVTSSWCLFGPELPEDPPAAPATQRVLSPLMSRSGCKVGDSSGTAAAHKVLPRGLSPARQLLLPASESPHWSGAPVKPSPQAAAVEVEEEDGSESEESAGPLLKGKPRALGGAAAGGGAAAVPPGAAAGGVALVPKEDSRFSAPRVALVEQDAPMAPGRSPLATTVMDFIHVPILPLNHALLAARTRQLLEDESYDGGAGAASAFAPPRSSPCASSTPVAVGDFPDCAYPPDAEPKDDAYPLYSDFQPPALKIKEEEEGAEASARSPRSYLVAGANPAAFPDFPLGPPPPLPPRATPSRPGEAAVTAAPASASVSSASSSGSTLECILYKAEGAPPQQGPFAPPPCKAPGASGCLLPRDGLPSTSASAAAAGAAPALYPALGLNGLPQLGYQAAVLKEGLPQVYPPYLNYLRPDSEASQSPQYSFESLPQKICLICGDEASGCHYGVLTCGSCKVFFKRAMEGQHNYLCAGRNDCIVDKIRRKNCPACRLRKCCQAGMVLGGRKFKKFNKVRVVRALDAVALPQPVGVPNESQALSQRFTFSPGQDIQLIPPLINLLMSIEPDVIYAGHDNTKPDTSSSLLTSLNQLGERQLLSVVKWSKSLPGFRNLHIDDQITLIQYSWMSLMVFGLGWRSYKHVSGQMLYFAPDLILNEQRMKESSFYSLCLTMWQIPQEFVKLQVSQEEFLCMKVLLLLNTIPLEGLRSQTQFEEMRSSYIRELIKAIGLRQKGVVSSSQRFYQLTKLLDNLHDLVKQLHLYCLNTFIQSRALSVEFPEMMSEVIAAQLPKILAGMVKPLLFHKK
Method in brief: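 Agonist qHTS: compounds pinned onto 3,000 PR-UAS-bla HEK 293T cells per well in charcoal-stripped serum medium, 16hr at 37C, then beta-lactamase activity measured by LiveBLAzer FRET fluorescence after 2 hours at room temperature.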

[16] = qHTS assay to identify small molecule agonists of the progesterone receptor (PR) signaling pathway - cell viability counter screen (AID 1346799; calls by dose curve)
Method in brief: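 Cytotoxicity measured by CellTiter-Glo luminescence (30 min, RT) in the same wells as the PR beta-lactamase agonist read. Those HEK293T cells had 16 h compound treatment at 37 C in 2% charcoal-stripped FBS medium.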

[17] = target: Nuclear receptor subfamily 1 group I member 2 (Homo sapiens) (UniProt O75469); assay: Human pregnane X receptor (PXR) activation by small molecules, qHTS assay (AID 1346985); note: % is set by controls: 0 for no effect and ±100 for the full control effect; nearly all actives have a fitted effect of over 40% in size
Method in brief: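 DPX-2 cells (HepG2 co-transfected with a PXR response element and a CYP3A4-promoter luciferase construct) were seeded at 2,000 per well, rested 5 hr at 37C, then exposed to DMSO-dissolved compounds for 24 hr. Activation was read as luciferase luminescence.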

[18] = target: Cytochrome P450 2C9 (Homo sapiens) (UniProt P11712); assay: Cytochrome P450 Family 2 Subfamily C Member 9 (CYP2C9) small molecule antagonists: luciferase reporter qHTS assay (AID 1671198); note: % is set by controls: 0 for no effect and ±100 for the full control effect; nearly all actives have a fitted effect of over 50% in size
UniProt P11712, sequence (P11712 whole entry, looked up): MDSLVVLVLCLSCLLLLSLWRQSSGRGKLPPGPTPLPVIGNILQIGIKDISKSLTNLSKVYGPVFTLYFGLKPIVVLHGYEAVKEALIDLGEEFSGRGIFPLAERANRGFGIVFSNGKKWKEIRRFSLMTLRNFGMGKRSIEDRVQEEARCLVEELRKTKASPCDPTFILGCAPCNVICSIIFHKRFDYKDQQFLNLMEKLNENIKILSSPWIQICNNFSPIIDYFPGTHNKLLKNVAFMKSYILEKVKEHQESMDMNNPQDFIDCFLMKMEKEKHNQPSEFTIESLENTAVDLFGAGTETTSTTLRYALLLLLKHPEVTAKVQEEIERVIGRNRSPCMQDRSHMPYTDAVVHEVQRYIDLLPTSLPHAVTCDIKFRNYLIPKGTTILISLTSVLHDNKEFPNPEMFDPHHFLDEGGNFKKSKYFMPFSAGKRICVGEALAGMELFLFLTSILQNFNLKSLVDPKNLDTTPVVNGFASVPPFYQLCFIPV
Method in brief: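 Enzyme-substrate mix preincubated with compound 10 min at room temperature; reaction started with NADPH regeneration solution, 1 h 37C. Luminescent luciferin product read after 20 min detection reagent.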

[19] = qHTS assay for small molecule agonists of the p53 signaling pathway (AID 651631; calls by dose curve; note: % is set by controls: 0 for no effect and ±100 for the full control effect; nearly all actives have a fitted effect of over 15% in size); conditions: HCT-116 p53RE-bla reporter, beta-lactamase FRET ratio, 16 h; activation: at 73.3 µM (top of the series) unless noted
Method in brief: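 Readout was fluorescence from the LiveBLAzer FRET substrate, applied for 2 h at room temperature after 16 h compound exposure at 37 °C. Cells were the p53RE-bla HCT-116 line, with beta-lactamase driven by p53 response elements.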

[20] = qHTS assay to identify small molecule antagonists of the estrogen related receptor signaling pathway with the pleiotropic PPARgamma coactivator (PGC) from Tox21 10K library - cell viability counter screen (AID 1224840; active = well fitted cell-killing curve with a large enough effect in the repeat runs, not every such curve was filed as active; inconclusive = weak or mixed curves, or effect the other way; inactive = no such curve, though single readings can be large or run the other way; note: % is set by controls: 0 for no effect and ±100 for the full control effect; nearly all actives have a fitted effect of over 40% in size)
Method in brief: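 PGC/ERR cells were seeded at 2,000 cells/well and left 6 hours at 37 C/5% CO2 before pin-tool addition of compounds in DMSO. After 17.5 hours at 37 C, CellTiter-Fluor was added and fluorescence read 30 minutes later.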

[21] = qHTS RealTime-Glo MT Cell Viability Assay in HEK293 cells - 0 hour (AID 1224880)
Method in brief: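 HEK293 cells mixed with RealTime-Glo reagents (NanoLuc plus cell-permeant prosubstrate) at 600 cells/well, preincubated 5 h at 37 C/5% CO2, then given 23 nL compound in DMSO. Nonlytic luminescence from viable cells was read at 0, 8, 16, 24, 32 and 40 h.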

[22] = Caspase-3/7 induction in CHO-K1 cells by small molecules, qHTS cell viability counter screen (AID 1346979); note: % is set by controls: 0 for no effect and ±100 for the full control effect; nearly all actives have a fitted effect of over 35% in size
Method in brief: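 Cytotoxicity counter screen: CellTiter-Fluor added to compound-treated wild-type CHO-K1 cells at 16 h (37C, 5% CO2), fluorescence measured 1 h later; same wells as caspase-3/7 measurement.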

[23] = target: Cytochrome P450 1A2 (Homo sapiens) (UniProt P05177); assay: Cytochrome P450 Family 1 Subfamily A Member 2 (CYP1A2) small molecule antagonists: luciferase reporter qHTS assay (AID 1671199); note: % is set by controls: 0 for no effect and ±100 for the full control effect; nearly all actives have a fitted effect of over 50% in size
UniProt P05177, sequence (P05177 whole entry, looked up): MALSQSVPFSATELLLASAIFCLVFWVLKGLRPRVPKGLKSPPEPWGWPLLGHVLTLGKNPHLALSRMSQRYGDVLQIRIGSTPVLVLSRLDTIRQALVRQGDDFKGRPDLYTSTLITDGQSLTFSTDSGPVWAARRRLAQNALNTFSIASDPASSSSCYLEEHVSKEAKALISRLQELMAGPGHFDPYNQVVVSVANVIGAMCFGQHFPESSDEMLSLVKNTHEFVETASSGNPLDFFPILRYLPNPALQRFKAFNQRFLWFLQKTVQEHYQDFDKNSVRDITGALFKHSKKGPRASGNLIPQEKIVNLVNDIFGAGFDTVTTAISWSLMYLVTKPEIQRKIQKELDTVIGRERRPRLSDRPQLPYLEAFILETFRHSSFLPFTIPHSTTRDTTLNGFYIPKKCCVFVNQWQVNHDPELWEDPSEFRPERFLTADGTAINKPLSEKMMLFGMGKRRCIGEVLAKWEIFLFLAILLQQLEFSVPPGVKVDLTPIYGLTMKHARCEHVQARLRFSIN
Method in brief: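 Human CYP1A2 activity measured with a P450-Glo proluciferin substrate; compounds in DMSO preincubated 10 min at room temperature with enzyme-substrate mix, then NADPH regeneration system added for 1 h. Luciferin detection reagent, 20 min, luminescence read.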
Tags give direction and shape of the fitted curve.

CN(C)CCn1nnnc1SCC1=C(C(=O)O)N2C(=O)[C@@H](NC(=O)Cc3csc(N)n3)[C@H]2SC1
inconclusive: Potency [4] 285 nM [rising, full curve, poor fit] | Potency [5] 28.8 nM [rising, full curve, poor fit] | activation [7] 19.7% | Potency [14] 2.37 µM [inhibitor, full curve]
inactive: Potency [1] | Potency [2] | Potency [3] | Potency [6] | Potency [8] | Potency [9] | Potency [10] | Potency [11] | Potency [12] | Potency [13] | Potency [15] | Potency [16] | Potency [17] | Potency [18]

CC(=O)OCCCc1ccccc1
inconclusive: activation [7] 17.7% | Potency [21] 49 µM [rising, partial curve]
inactive: Potency [19] | Potency [8] | Potency [9] | Potency [10] | Potency [20] | Potency [14] | Potency [22] | Potency [18] | Potency [23]
